# Laboratory results reported in the supplement of paper PMC3334620.
# Over roughly 33,000 sequences, “E-score (-0.5 to 0.5)” has its median near -0.043; the highest 2% begin near 0.37. This is one part of the list.
# Target: T1, Upc2 (UniProt Q12151)
# T1 sequence: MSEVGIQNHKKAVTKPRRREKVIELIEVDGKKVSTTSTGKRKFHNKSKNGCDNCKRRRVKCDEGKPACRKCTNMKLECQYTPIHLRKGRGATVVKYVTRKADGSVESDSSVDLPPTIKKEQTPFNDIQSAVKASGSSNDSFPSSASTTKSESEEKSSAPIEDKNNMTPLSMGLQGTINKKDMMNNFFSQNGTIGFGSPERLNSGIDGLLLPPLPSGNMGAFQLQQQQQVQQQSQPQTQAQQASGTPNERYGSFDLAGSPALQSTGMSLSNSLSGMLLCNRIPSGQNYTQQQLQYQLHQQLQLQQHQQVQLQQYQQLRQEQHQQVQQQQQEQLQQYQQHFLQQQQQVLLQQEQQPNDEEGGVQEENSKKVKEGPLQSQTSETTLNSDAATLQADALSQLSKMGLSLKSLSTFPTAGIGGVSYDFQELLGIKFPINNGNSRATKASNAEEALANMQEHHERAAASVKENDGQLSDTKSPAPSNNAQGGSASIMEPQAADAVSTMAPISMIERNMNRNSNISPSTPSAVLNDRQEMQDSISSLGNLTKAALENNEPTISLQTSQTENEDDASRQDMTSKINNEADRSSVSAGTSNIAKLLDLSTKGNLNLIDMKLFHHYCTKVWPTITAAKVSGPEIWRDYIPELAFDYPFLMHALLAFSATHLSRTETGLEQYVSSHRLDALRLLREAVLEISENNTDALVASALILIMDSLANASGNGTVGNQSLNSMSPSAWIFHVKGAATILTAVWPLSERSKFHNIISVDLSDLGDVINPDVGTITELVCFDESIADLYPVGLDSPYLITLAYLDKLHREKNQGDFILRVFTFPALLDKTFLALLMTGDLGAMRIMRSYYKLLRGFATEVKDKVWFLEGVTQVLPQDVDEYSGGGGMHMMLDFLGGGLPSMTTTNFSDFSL
# Assay: PBM E-score (8-mer binding enrichment) (E-score (-0.5 to 0.5)); higher = stronger / more preferred TF binding; most listed sequences are background and not binding sites
# Conditions: protein concentration: 200 nM; construct: GST-full length
# Outline: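 Bound GST-tagged yeast transcription factors, applied at about 100-200 nM to double-stranded universal all-10-mer Agilent arrays, were detected with fluorescent anti-GST. Scans were normalised with masliner. A modified Wilcoxon-Mann-Whitney statistic, the E-score, was assigned to each ungapped eight-base word pooled with its reverse complement by the Universal PBM Analysis Suite.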
row,Sequence,PBM E-score
1,AGTTCTCA,-0.107
2,CGGCGAAG,-0.00659
3,GTATTGAA,0.0502
4,AAAAAATA,0.0722
5,TCTGGCAA,-0.274
6,GCTACTCC,-0.242
7,CTGTAAAA,0.00697
8,ACAGTATA,0.254
9,AGCTCGAT,-0.0109
10,GATCTGGA,-0.117
11,GAAGCTAA,-0.0863
12,ACACCCTG,-0.311
13,AATTCTCG,0.235
14,CCCCCGTC,-0.229
15,GGCATCTA,-0.0348
16,GGACGTCA,-0.198
17,ATTCTTAG,-0.0823
18,ACAAACTA,-0.00892
19,AATGTAAT,0.0352
20,AGAACGCC,-0.0507
21,CCGCGTCC,-0.071
22,GATTAACC,0.0372
23,AATGCAAA,-0.0635
24,GGCATGAA,0.00527
25,AATCCGGG,-0.23

row,Sequence,PBM E-score
1,ACCCTGTC,0.005
2,AGTAAGTA,-0.0261
3,CGGTCCCA,0.177
4,CCGGCGAA,0.121
5,AATAGATA,-0.00376
6,GTCACGTA,0.237
7,CTCGCGAG,0.144
8,AATGTTGT,0.0348
9,CTCTCCCC,-0.305
10,CGTCACGA,0.133
11,CGGCTACA,0.0225
12,GCTTTTCA,-0.0167
13,AGGCACTC,-0.0682
14,CGCAGGCA,-0.178
15,ATACGTAA,0.334
16,CCAACCAG,-0.079
17,CAAATGGG,-0.196
18,GGAGCCAC,-0.00244
19,ACTATTAT,-0.108
20,ACTGGTTC,-0.0269
21,CCGCTGCG,0.00129
22,ATGGTCTC,-0.0847
23,ATCGAGCA,-0.00379
24,CCGACACG,0.0185
25,ATGGGTGA,-0.215

row,Sequence,PBM E-score
1,CTCTCTAC,-0.00069
2,GGGCACCA,-0.208
3,CGGTCGCA,0.0322
4,GTTCCACA,0.0553
5,CACGCCGA,-0.19
6,AGGTACAC,-0.0721
7,TAGACCCA,-0.298
8,CACCCACA,-0.143
9,CCACGGGA,-0.00415
10,GATTATCC,-0.0434
11,CCGCCAGG,-0.154
12,CAGTGAGC,-0.196
13,TCCTCCCA,-0.145
14,AGGAAGGG,-0.322
15,CTCTAGCA,-0.228
16,AATCTTGG,-0.364
17,CGGCCGTA,0.378
18,ACTGTAGC,-0.0955
19,AAAAAAAA,-0.0227
20,ACCCGAAC,0.278
21,ATGGTACA,-0.173
22,AGGGGTTG,-0.106
23,TGCGACAA,0.141
24,GAAGAAGC,-0.195
25,ATTAGGGG,-0.067

row,Sequence,PBM E-score
1,CGCCCCCA,-0.189
2,GCTACTAA,-0.147
3,ATAGCATA,0.14
4,GGAGCCAA,-0.242
5,GCCGGGGA,-0.273
6,AACGCGGA,0.152
7,ACCCTACA,0.0453
8,CCGCAGGC,-0.0387
9,CATTCGAC,-0.128
10,AAGCAGAA,-0.0907
11,AATTGGGC,-0.199
12,CCTAGTGC,-0.199
13,AAGCCACT,-0.122
14,ACCCCTCC,-0.102
15,ACGAGACT,0.337
16,CTAGCAAA,-0.221
17,AAGGAGAT,-0.197
18,AATATCAT,-0.0596
19,TCCACAAA,-0.00827
20,ACTCAACT,0.0493
21,AATCCTAA,-0.0492
22,AGACAGTA,-0.167
23,AGGGGTAG,-0.0712
24,GATTTTCA,0.115
25,GAAAGCTA,-0.143

row,Sequence,PBM E-score
1,AACGTCTG,0.0524
2,GGTAACGA,0.346
3,ACGTATGA,0.243
4,ACGATTTA,0.28
5,GGAATCCA,-0.203
6,CGGGGCAC,-0.065
7,CCGGAATC,-0.285
8,CTACGGCC,-0.0664
9,CGTTCCCC,0.333
10,TGAATGCA,-0.0537
11,AATCGTTG,0.142
12,AGAGGGAA,-0.35
13,CCGCAACC,-0.202
14,AAGTCATG,-0.114
15,CACTGAGA,-0.0162
16,AAATGAGA,-0.0182
17,ACACATTC,0.0508
18,CGGCAGAG,-0.145
19,AGTAAACT,0.118
20,AAATAGGT,-0.0209
21,GCGGACGA,-0.0197
22,ACCTGAAG,-0.141
23,AGCGCGTA,0.33
24,TGCATACA,-0.0128
25,CGGTACTA,-0.116

row,Sequence,PBM E-score
1,GTAGTCTA,0.048
2,CTACTAAG,-0.0846
3,ATCCCGAA,-0.061
4,TAAATTGA,-0.0257
5,AATGTTCT,-0.0724
6,AGAGCATG,-0.17
7,AGATCCGA,0.164
8,ATTTCCGC,0.0187
9,CGAGAGCA,0.157
10,AATTTCCC,-0.0871
11,AGACCGGA,-0.0184
12,ATCCCCTA,-0.25
13,AACCGGTC,-0.0339
14,CTTGAAAA,0.0485
15,CAGGCTAA,-0.0977
16,CGAAAACA,0.106
17,GTTACCTA,-0.186
18,CGCAAATC,0.0443
19,AAGCCTGT,-0.282
20,CGACTGTC,-0.0612
21,CGCCGCAC,-0.0582
22,CTGCCACA,-0.212
23,ACGCTCAA,0.0452
24,CGCGCCCG,-0.102
25,AGCACAAG,-0.199

row,Sequence,PBM E-score
1,GGATGATA,-0.136
2,AACTCTAA,-0.0333
3,CTGGCCAG,-0.143
4,CTCTAAAC,0.193
5,GCGAGCAA,0.168
6,CATTAGCC,-0.158
7,AGCCGACC,-0.0565
8,CCACTGAA,-0.119
9,CGTTGAAA,0.144
10,ACGAGATG,0.38
11,GCGTAAAA,0.302
12,ATGCGATG,0.112
13,GCTCTCTA,-0.142
14,TCACCAAA,0.025
15,CTTTTAGC,0.0779
16,TATCCAGA,-0.0529
17,CCGGGCCG,0.0549
18,ACACATGA,-0.106
19,ATAGCGTG,-0.0966
20,ATTGATTC,0.012
21,TCAACTGA,-0.267
22,AAATGGTG,-0.00418
